Source: PubChem BioAssay AID1159614 (National Center for Advancing Translational Sciences (NCATS), 2016)
The whole screen tested about 45,000 compounds, of which about 65 (0.1%) were called active. Calls come from the whole dose curve; as a rule, active = well fitted activation curve with a large enough effect; inconclusive = small, poorly fitted or top-dose-only effect; inactive = no such curve, though single readings can be large or run the other way. This is one part of the list.

Molecular target: Galactocerebrosidase (Homo sapiens) (UniProt P54803)
Chain of UniProt P54803 (P54803 whole entry, looked up): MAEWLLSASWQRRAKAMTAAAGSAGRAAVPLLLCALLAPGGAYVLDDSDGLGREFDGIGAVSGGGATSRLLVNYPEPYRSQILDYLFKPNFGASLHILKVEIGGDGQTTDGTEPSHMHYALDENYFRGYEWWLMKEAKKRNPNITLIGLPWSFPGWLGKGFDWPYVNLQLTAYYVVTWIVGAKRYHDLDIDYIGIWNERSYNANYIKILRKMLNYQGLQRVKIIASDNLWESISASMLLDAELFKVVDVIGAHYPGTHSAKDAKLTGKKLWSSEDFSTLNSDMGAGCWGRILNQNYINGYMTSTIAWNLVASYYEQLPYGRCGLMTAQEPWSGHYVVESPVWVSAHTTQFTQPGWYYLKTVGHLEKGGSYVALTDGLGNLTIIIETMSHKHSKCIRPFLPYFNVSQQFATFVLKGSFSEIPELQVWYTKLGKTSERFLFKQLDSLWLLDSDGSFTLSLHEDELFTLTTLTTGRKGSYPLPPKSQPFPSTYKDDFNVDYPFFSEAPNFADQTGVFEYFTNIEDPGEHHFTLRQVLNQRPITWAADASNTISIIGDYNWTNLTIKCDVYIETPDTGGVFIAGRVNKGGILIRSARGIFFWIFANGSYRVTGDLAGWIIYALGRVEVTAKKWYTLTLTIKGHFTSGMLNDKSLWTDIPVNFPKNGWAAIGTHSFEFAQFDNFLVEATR
Test: A Novel Cell-Based Assay to Identify Small Molecules for B -Galactocerebrosidase; note: 0% is about no effect; nearly all actives have a fitted effect of over 65% in size
Conditions: 145M-Twi-hGALC-G270D cells (Twitcher mouse brain line with human GALC G270D), HMU-beta-Gal fluorescence, 48 h; series mostly up to 57.5 µM; activation: at the top concentration
Procedure, shortened: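 Mutant human GALC (G270D), stably expressed in a Twitcher mouse brain cell line lacking endogenous GALC, is measured in live-treated cells via 6-hexadecanoylamino-4-methylumbelliferyl-β-galactoside hydrolysis (0.1 mM final, pH 5.2) with fluorescent detection.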

activation, inactive:
CCCCn1c(=O)c2oc3ccccc3c2n(Cc2cccc(C)c2)c1=O -13.6%
Cc1ccc(-c2noc(-c3ccc(N4CCCCC4C)c([N+](=O)[O-])c3)n2)cc1 (stereo not drawn) -3%
Cc1cc(-c2ccc(S(=O)(=O)NCc3ccccc3Cl)s2)on1 -30.7%
CCS(=O)(=O)N1CCC2(CC1)OC(=O)C(C)=C2C(=O)NCc1ccccc1C 1.15%
CCOc1ccc(NC(=O)CN2CCN(C3CCCCC3)C(=O)C2=O)cc1 5.27%
Cc1ccc(S(=O)(=O)N2CCc3cc(C(=O)NCCc4ccccc4)ccc32)cc1 -14%
Cc1c(-c2cccc(NC(=O)Nc3ccccc3)c2)nc2ncccn12 -5.71%
Cc1ccc(-c2cc(-c3coc4ccccc4c3=O)c3c(n2)-c2ccccc2OC3)cc1 -14.7%
COc1cccc(Cn2c(=O)cc(C)c3c(C)nn(-c4ccc(C)cc4)c32)c1 -4.39%
Cc1noc(NS(=O)(=O)c2ccc(NC(=O)c3ccc(Br)cc3)cc2)c1C -6.72%
COC(=O)c1nnn(CC(=O)NC(=O)Nc2ccccc2F)c1C(=O)OC -12.3%
Cc1c(Cl)cccc1NC(=O)c1ccc2nc(C(C)C)oc2c1 -1.83%
CCN1CCC(N(Cc2ccc(F)cc2)C(=O)Nc2cccc(C(F)(F)F)c2)CC1 -16.5%
CCc1ccccc1Nc1nn2c(=O)c3ccc(C(=O)Nc4ccc(OC)cc4)cc3nc2s1 -21%
Cc1cccc(NC(=O)NCCOCCn2c(=O)oc3ccccc32)c1C -2.2%
CC(=O)Nc1cc(-c2ccccc2)nn1Cc1cccc(Cl)c1 -15.7%
O=C(CSc1nc2ccccc2nc1Cc1ccccc1)N1CCN(c2ccccc2)CC1 -10.1%
CC(C)Oc1ccc(C(=O)Nc2ccc(-c3nc4ccccc4s3)cc2)cc1 -18.6%
COc1ccc(CCC(=O)NCc2nc3cccnc3n2Cc2ccccc2)cc1 6.79%
Cc1ccc(Cl)cc1NC(=O)CCCN1C(=O)CCn2nc(-c3cn(C)c4ccccc34)cc21 -10.3%
CCOc1ccc(CCNC(=O)CCn2c(=O)c3cccn3c3cccnc32)cc1 2.52%
O=c1cc[nH]c(=O)[nH]1 -2.06%
Cc1ccccc1Cn1c(CN2CCN(c3cc(Cl)ccc3C)CC2)nc2c1c(=O)[nH]c(=O)n2C -3.38%
COc1ccccc1C(=O)Nc1cc(-c2ccc(C)cc2)no1 -21.6%
O=C(O)c1ccc(N2C(=O)c3[nH]nc(-c4ccccc4)c3C2c2cccc(F)c2)cc1 (stereo not drawn) -9.17%
CCC(=O)Nc1ccccc1-c1nc2ccccc2n(C(C)C(=O)Nc2ccc(OC)cc2)c1=O (stereo not drawn) 1.27%
CN(c1ccccc1)c1ncnc2c1cnn2C -5.22%
COc1ccc(C)cc1S(=O)(=O)NCC(c1ccc(N(C)C)cc1)N1CCc2ccccc21 (stereo not drawn) 0.964%
COc1ccc(N2CCN(C(=O)c3cc4cc5ccc(Cl)cc5nc4o3)CC2)cc1 -11.4%
Cc1ccc(NC(=O)Cn2c(=O)oc3cc(S(=O)(=O)N4CCC(C)CC4)ccc32)cc1Cl -11.3%
COc1cccc(C2C(=O)N(C3CCCCC3)CC(=O)N2Cc2ccc(Cl)cc2)c1 (stereo not drawn) -12.7%
Cc1cc(NC(=O)N2CCC(CN3CCOCC3)CC2)ccc1Br 5.63%
CCNc1nc(Oc2ccc(=O)n(-c3ccccc3)n2)nc(N(C)C)n1 -4.86%
CCc1ccc(C2C(C(=O)Nc3ccc(Cl)cc3)=C(C)Nc3ncnn32)cc1 (stereo not drawn) 1.23%
Cc1ccc2c(c1)C(=O)OC(C(=O)Nc1ncc(Cc3ccccc3)s1)C2 (stereo not drawn) -14.2%
Cc1ccc(C2c3[nH]c4ccccc4c3CCN2C(=O)Nc2ccc(C)c(C)c2)cc1 (stereo not drawn) -29.6%
CCOc1ccccc1C(=O)NCc1ccc2c(c1)CCN2C(C)=O -19.5%
COc1ccc(C2(CNC(=O)C(=O)Nc3cccc(C(F)(F)F)c3)CCCC2)cc1OC -14.1%
Cc1ccc(S(=O)(=O)Nc2cccc(-c3ccc(N4CCCCC4)nn3)c2)s1 -8.02%
CCOC(=O)C(C)Sc1nnc2ccc3ccccc3n12 (stereo not drawn) -2.42%
Cc1ccc(NC(=O)C(=O)NCc2ccc(Cl)cc2)cc1 -13.2%
O=C(NCCc1ccc(Cl)cc1)c1ccc(CSCc2ccccc2Cl)o1 -16.4%
CC(=O)c1cccc(NC(=O)c2nc(-c3ccc(C)cc3)n3c2CCCCC3)c1 -5.24%
Cc1cccc(NC(=O)C2CCCN(S(=O)(=O)c3cccc4nonc34)C2)c1 (stereo not drawn) -9.97%
CCOc1ccc(NC(=O)N(Cc2c[nH]c3ccccc23)C2CCCCC2)cc1 1.87%
Nc1cc(=O)nc(SCC(=O)Nc2ccc(F)cc2)n1-c1ccc(Cl)cc1 -4.51%
Cc1oc(-c2cccc(Cl)c2)nc1CN1CCC(C(=O)NCCCN2CCN(c3cccc(Cl)c3)CC2)CC1 -10.7%
COc1cc(OC)c(NC(=O)CCn2cnc3onc(-c4ccc(F)cc4)c3c2=O)cc1Cl 2.96%
CCCCNC(=O)c1[nH]c2ccccc2c1Sc1ccc(C)cc1 -5.54%
CCC[C@@H]1C[C@@H](C(=O)N[C@@H]([C@H]2O[C@H](SC)[C@H](O)[C@@H](O)[C@H]2O)[C@@H](C)O)N(C)C1 -18%
Cc1ccc(CNCc2c(C(=O)O)n(Cc3ccccc3C)c3cc(C)ccc23)cc1 -24.4%
Cc1ccc(C)c(S(=O)(=O)c2cnc(SCC(=O)Nc3ccc(F)cc3F)[nH]c2=O)c1 -10.3%
CCc1ccc(NC(=O)CSc2nccn2C2CCCC2)cc1 -20.4%
Cc1oc(-c2ccc(C(=O)NCc3ccc(N(C)C)cc3)cc2)nc1COc1ccccc1 -14.7%
CC(NC(=O)CN(C)S(=O)(=O)c1ccc2c(c1)c(=O)n(C)c(=O)n2C)c1ccccc1 (stereo not drawn) 0.548%
Cc1cc2c(=O)c(C(=O)c3ccncc3)cn(CC(=O)Nc3cccc(C)c3C)c2cc1C -18.8%
Cc1ccc2c(c1)c(=O)c(C(=O)c1ccncc1)cn2CC(=O)Nc1c(C)cccc1C -19.8%
Cc1cc(=O)n(CC(=O)NCCC(C)C)c2c1c(C)nn2C -0.222%
Cn1cc(S(=O)(=O)N2CCCCC2)cc1C(=O)N1CCN(c2ccc(F)cc2)CC1 -6.63%
CCn1cc(C(=O)OCC(=O)Nc2cc(Cl)ccc2OC)c(=O)c2ccc(C)nc21 -12.1%
COc1ccc(Br)cc1C1CC(=O)Nc2c1c(C)nn2-c1nc(C)cc(C)n1 (stereo not drawn) -12.1%
Cc1ccc2nc(N(Cc3cccnc3)C(=O)C3CCCCC3)sc2c1 -14.4%
Cc1cccc(NC(=O)Cn2c(=O)oc3cc(S(=O)(=O)NCc4ccccc4)ccc32)c1 -34.5%
Cc1ccc(C)c(-c2csc(-c3c(N)c(C(=O)c4ccc5c(c4)OCO5)n4ccccc34)n2)c1 -13.5%
CCN(CC)CCNC(=O)C1CCCN(c2ncnc3onc(C)c23)C1 (stereo not drawn) -17.4%
Cc1c(C(N)=O)nnn1-c1ccc(Br)cc1 -13.6%
COc1ccc(CCNC(=O)Cn2ncc3c(C)n(Cc4ccccc4F)c(C)c3c2=O)cc1OC -9.58%
CCOC(=O)c1c(S(=O)(=O)N2CCCC(C(=O)N3CCN(c4ccc(F)cc4)CC3)C2)c(C)n(C)c1C (stereo not drawn) -21.3%
COc1ccc(CCNC(=O)Cn2nc(C)n3c(cc4occc43)c2=O)cc1OC 3.58%
COc1ccc(Br)cc1CNC(=O)C(C)n1nc(C)n2c(cc3occc32)c1=O (stereo not drawn) -0.907%
CCSc1nc2n(n1)C(c1ccc(CC)cc1)C(C(=O)Nc1ccccc1OC)=C(C)N2 (stereo not drawn) -2.26%
CCC(C(=O)N1CCN(c2cc(Cl)ccc2C)CC1)n1nc(C)n2c(cc3occc32)c1=O (stereo not drawn) -30.2%
Cc1c(Cl)cccc1-n1c(CCC(=O)O)ccc1-c1cccs1 -12.8%
CCc1cccc(NC(=O)CN2C(=O)CCc3cc(S(=O)(=O)N4CCOCC4)ccc32)c1 2.08%
CCc1ccc2nc(N3CCC(C(=O)O)CC3)sc2c1 -18.8%
COc1cc(CNCc2c(C(=O)O)c(C)n(Cc3cccc(Cl)c3)c2C)cc(OC)c1OC 1.44%
Cc1ccc(CN2CCSc3ccc(C(=O)Nc4ccc(F)cc4F)cc32)cc1 -19.1%
COc1ccc(N2CCN(C(=O)c3cc4c(=O)n(Cc5ccccc5)ccc4nc3C)CC2)cc1 -7%
Cc1ccc2oc(C(=O)Nc3nnc(CC(C)C)s3)cc(=O)c2c1 -20.8%
CCN(CC)c1cc(C)nc2nc(-c3ccc(C)cc3)nn12 -9.83%
COc1ccc(-c2cc(C(F)(F)F)nc(SCC(=O)NCc3ccc(OC)c(OC)c3)n2)cc1 -8.6%
CCc1nnc2c(Nc3cccc(C(C)=O)c3)nc3ccccc3n12 -15.6%
COc1ccccc1N(CC(=O)NCCSCc1ccccc1)S(C)(=O)=O -14.1%
CCCCc1nn2c(=O)cc(COC(=O)c3cccc(OC)c3)nc2s1 0.0817%
CCCCc1nn2c(=O)cc(COC(=O)COc3ccc(C)cc3)nc2s1 -22%
COc1ccc(C)cc1NC(=O)CN(c1ccccc1)S(=O)(=O)N(C)C -2.86%
CCOC(=O)CN1C(=O)c2ccccc2Sc2ncccc21 -4.15%
COc1ccc(NC(=O)CN2C(=O)COc3ccc(S(=O)(=O)Nc4ccccc4)cc32)cc1 -9.85%
CCOc1ccc(C(=O)NCc2ccc3c(c2)CCN3C(=O)c2ccccc2)cc1 -6.27%
COc1cccc(C(=O)Nc2cccc(OCc3cc(=O)n4cc(C)ccc4n3)c2)c1 -5.62%
CCc1ccc(CNC(=O)c2ccc3c(c2)nc2n3CCC(C)C2)cc1 (stereo not drawn) 6.06%
COc1ccc(-c2onc(C)c2C)cc1S(=O)(=O)NCc1ccco1 -10.4%
O=C(Nc1ccc(F)cc1Cl)n1ncc2cc(Cl)ccc21 -19.7%
CCC(=O)N1CCc2cc(S(=O)(=O)NC(CC(C)C)C(=O)Nc3cc(C)ccc3OC)ccc21 (stereo not drawn) -11.2%
CCC12CN3CC(C)(CN(C1)C3c1c[nH]c3ccccc13)C2=O (stereo not drawn) -9.47%
CCc1ccc(NC(=O)CSC2=Nc3ccccc3C3=NC(CCC(=O)NCCc4ccccc4)C(=O)N23)cc1 (stereo not drawn) -16.1%
COc1ccc(/C=C\c2onc(C)c2S(=O)(=O)N2CCC(C(=O)Nc3ccc(C)cc3C)CC2)cc1 -13.3%
CC1=C(C(=O)Nc2ccc(C)cc2C)C(c2ccc(O)cc2)n2nnnc2N1 (stereo not drawn) 13.1%
